Laboratory results from PubChem BioAssay AID1347073 (National Center for Advancing Translational Sciences (NCATS), 2019).
The campaign covered roughly 45,000 compounds. About 200 (0.44%) were called active. Not shown: some 7% with an inconclusive outcome. Calls follow the shape of the dose curve; as a rule, active = well fitted activation curve with a large enough effect; inconclusive = small, poorly fitted or top-dose-only effect; inactive = no such curve, though single readings can be large or run the other way. The list shows a part of the results.

Assay: qHTS of TDP-43 Inhibitors: NCGC Sytravon Library Screen; also: 0% is about no effect; nearly all actives have a fitted effect of over 55% in size
Settings: yeast TDP-43 toxicity rescue, BacTiter-Glo growth, 24 h; series mostly up to 46.1 µM; growth rescue (activation): at the top concentration
In short: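 TDP-43-expressing yeast, pregrown in raffinose, seeded at OD600 0.02 in galactose medium with compound for 24 hr at 30 deg C. Growth read by BacTiter-Glo luminescence, so rescue of toxicity appears as activation.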

Compound	growth rescue (activation)
COc1cc(/C=N\Nc2nc(-c3cccs3)c(NC(C)=O)s2)ccc1O	inactive: -0.488%
O=C(NCC(=O)N(c1cccnc1)C(C(=O)NC1CCCCC1)c1ccccc1F)c1ccco1 (stereo not given)	inactive: -13.9%
CC(=O)NC(Cc1cccc(F)c1)C(=O)NC1CCN(c2nnnn2-c2ccccc2)CC1 (stereo not given)	inactive: 1.84%
O=C(COc1ccc(S(=O)(=O)N2CCCC2)cc1)Nc1ccc(F)cc1	inactive: 5.62%
Cc1cc(NC(=O)CN2C(=O)/C(=C/c3cccc(Br)c3)SC2=S)no1	inactive: 5.56%
Cc1ccc(C(=O)NCCSCc2ccc(Cl)cc2Cl)cc1[N+](=O)[O-]	inactive: 27.1%
COc1ccc(Cl)cc1-c1nc(SCC(=O)NC(C)C(C)C)n[nH]1 (stereo not given)	inactive: -2.25%
CC(C)(C)NC(=O)Cn1c(SCC(=O)NC2CCCC2)nc2ccccc21	inactive: 10.2%
CN(CC(=O)Nc1ccccc1C(F)(F)F)C(=O)CSc1nnc(N)s1	inactive: -5.37%
O=C(Nc1nc2nccc(-c3ccccc3)n2n1)c1ccccc1	inactive: -3.9%
Cc1cc2nc(NC(=O)C3(C)CCCN(C(C)C)C3)[nH]c2cc1C (stereo not given)	inactive: -10.8%
Cc1ccc(NC(=O)CN2C(=O)c3ccccc3S2(=O)=O)c(C)c1	inactive: 6.56%
COc1cc(Cl)c(C)cc1NC(=O)c1cccc(OC)c1OC	inactive: 16%
Cc1nnc(SCC(=O)N2CCOCC2)n1C	inactive: 7.96%
Fc1ccc2c(c1)C(c1ccncc1)=NNC(c1ccc(Br)cc1)=N2	inactive: 4.22%
Cc1ccc(NC(=O)CCn2c(=O)[nH]c3ccsc3c2=O)cc1	inactive: 8.39%
CCN(CC)S(=O)(=O)c1ccc(NS(=O)(=O)c2cccs2)cc1	inactive: 3.83%
Cc1cc(C(=O)COC(=O)Cc2n[nH]c(=O)c3ccccc23)c(C)n1-c1ccc2c(c1)OCCO2	inactive: 11.4%
COc1ccc(NC(=S)NN2CCN(C)CC2)cc1	inactive: 3.37%
CCCN1C(=O)/C(=C/c2ccccc2OCc2ccc(C(=O)O)cc2)NC1=S	inactive: 20.5%
Cc1cccc(C(=O)NCCNC(=O)c2cccnc2)c1	inactive: -6.49%
Cc1ccccc1Cn1nc(C)c(NC(=O)c2cc(CC(C)C)on2)c1C	inactive: 19.8%
COCCn1c(-c2ccc(NC(C)=O)cc2)nc2c1c(=O)[nH]c(=O)n2CC(C)C	inactive: 12.5%
COCCn1c(=O)[nH]c2cc(C(=O)Nc3cc(C)cc(C)c3)ccc2c1=O	inactive: 2.49%
CC(C)N(Cc1cnn(C)c1)C(=O)C1CCC(=O)N(CCc2cccc(F)c2)C1 (stereo not given)	inactive: 13.1%
COC(=O)CCC(=O)N1CCOCCOCCOCC1	inactive: 6.69%
COCCCn1c(C)cc(C(=O)COC(=O)CCc2nc3ccccc3c(=O)[nH]2)c1C	inactive: 35%

Compound	growth rescue (activation)
CCN(CC)S(=O)(=O)c1ccc(Cl)c(NC(=O)c2ccc(C#N)cc2)c1	inactive: -5.03%
COc1cc(NC(=O)c2ccccc2F)ccc1NC(=O)c1cc2ccccc2o1	inactive: 12.3%
CCCNC(=S)N1CCN(Cc2ccc3c(c2)OCO3)CC1	inactive: -6.14%
Cc1cc(C)nc(CCNC(=O)c2cc(COc3ccc(F)cc3Cl)on2)n1	inactive: 35.4%
O=c1[nH]c2c(c(=O)[nH]1)CCC2	inactive: 2.48%
CC(Sc1nncn1C)C(=O)Nc1cc(C(F)(F)F)ccc1N1CCOCC1 (stereo not given)	inactive: 1.36%
COc1ccccc1CC(=O)NNC(=O)c1ccco1	inactive: -7.58%
COc1ccccc1CNC(=O)CN(C)S(=O)(=O)c1ccc(F)cc1	inactive: -6.86%
Cc1ccc(NC(=O)CSc2nc(N)cc(=O)[nH]2)cc1S(=O)(=O)N1CCCCC1	inactive: -4.89%
COc1ccc(N2Cc3ccccc3C2=NC(=O)c2cncc(Br)c2)cc1	inactive: 2.96%
c1ccc2c(c1)oc1c(-c3cccc4nccn34)cccc12	inactive: 8.79%
CCCCCCCCCCOC(=O)Cn1c(COc2ccccc2C)[n+](C)c2ccccc21	inactive: -91.3%
O=C(CNC(=O)c1ccc(Cl)cc1)Nc1ccc(S(=O)(=O)Nc2ncccn2)cc1	inactive: 2.38%
Cc1ccc(NC(=O)c2oc3ccccc3c2COC(C)C)cc1S(=O)(=O)N1CCOCC1	inactive: 27.9%
CC(=O)Oc1ccc(-c2ccc(C(=O)NCCc3ccc(S(N)(=O)=O)cc3)cc2)cc1	inactive: -5.04%
Cc1cc(C)n2nc(C(=O)N/N=C/c3ccc(Cl)cc3)nc2n1	inactive: 7.29%
CCC(C(=O)NC1CCCCC1)N(Cc1cccs1)C(=O)CCC(=O)Nc1cc(C)on1 (stereo not given)	inactive: 2.74%
CCN(CC)S(=O)(=O)c1cccc(C(=O)NC(C(=O)NCCc2ccccn2)C(C)C)c1 (stereo not given)	inactive: -4.22%
CC(=O)Nc1ccccc1C(=O)C(=O)Nc1cccc(C(=O)NC2CC2)c1	inactive: 4.95%
O=C(c1ccco1)N1CCN(c2c([N+](=O)[O-])nn(-c3ccc(Cl)cc3)[n+]2[O-])CC1	inactive: 16.1%
OC(CCN1CCOCC1)c1ccccc1 (stereo not given)	inactive: 0.876%
CCNC(=O)C1(C)CCCN(C(=O)c2ccccc2Br)C1 (stereo not given)	inactive: -1.49%
O=C(COc1ccc(Cl)cc1Cl)NN=C1c2ccccc2-c2ccccc21	inactive: 9.77%
C/C(=N\NC(=O)C1COc2ccccc2O1)c1cc2ccccc2o1 (stereo not given)	inactive: 4.42%
COc1ccc(NC(=O)[C@@H]2CCCN2S(=O)(=O)c2ccc(Cl)cc2)cc1	inactive: 28%
CC(OC(=O)CCc1nc2ccccc2c(=O)[nH]1)C(=O)Nc1cccc(C(F)(F)F)c1 (stereo not given)	inactive: 10.4%
O=C(CSc1ccc(Cl)cc1)NC1CCCc2ccccc21 (stereo not given)	inactive: 8.01%

Compound	growth rescue (activation)
Cc1cccc(OC(C)C(=O)OCC(=O)Nc2sccc2C(N)=O)c1 (stereo not given)	inactive: 21%
CCOC(=O)C(Cc1ccc(OC)c([N+](=O)[O-])c1)NC(=O)CCC(=O)Nc1ccc(OC)cc1 (stereo not given)	inactive: -21%
FC(F)Oc1ccc(NC(=S)NNc2ccnc3cc(Cl)ccc23)cc1	inactive: 16.9%
COc1ccc(-c2cc(C(=O)NCC3CCCO3)c3ccccc3n2)c(OC)c1 (stereo not given)	inactive: 6.01%
CCS(=O)(=O)NCC(c1cccnc1)N1CCN(c2ccccc2F)CC1 (stereo not given)	inactive: 23.1%
Cc1nc(NC(=O)CCC(=O)O)sc1C(=O)N(C)C	inactive: -14.6%
Cc1ncc(CN2CCC(n3nccc3NC(=O)c3ccccc3)CC2)s1	inactive: 11.5%
Cc1cc(C)n2cc(CSc3nnnn3C)nc2n1	inactive: -18.9%
CCOc1cccc(C(=O)Nc2ccccc2C(=O)N2CCOCC2)c1	inactive: -1.15%
CC/C(C)=N/Nc1nc2c(c(=O)[nH]c(=O)n2C)n1CCc1ccccc1	inactive: 7.53%
Cc1ccc(-n2[nH]c(C)c(C=NCc3ccncc3)c2=O)cc1	inactive: -23.4%
COc1ccc2c(c1)-c1c(sn(-c3ccccc3)c1=S)C(C)(C)N2	inactive: 26.5%
CCOC(=O)NC1(C(F)(F)F)NC(=O)N(c2ccc(F)cc2)C1=O (stereo not given)	inactive: 0.513%
COc1ccc(NC(=O)CC2CCCC2)cc1OC	inactive: 12.7%
CCOC(=O)c1c(NC(=O)CSc2nc3nc(C)cc(C)n3n2)sc(CC)c1C	inactive: 5%
CSc1ccc(/C=C(\NC(=O)c2ccc(C)cc2)C(=O)Nc2cccc(C)c2)cc1	inactive: -1.23%
COc1cccc(/C=N/NC(=O)CCNc2n[nH]c(=O)[nH]c2=O)c1OC	inactive: 2.74%
C=C1C(C(=O)Nc2ccc(OCC)cc2)C1C(=O)Nc1ccc(OCC)cc1 (stereo not given)	inactive: -1.15%
COc1ccc(/C=N/Nc2nc(=O)[nH]nc2C)cc1OC	inactive: 6.16%
CC(C)c1ccc(OCC(=O)N(c2ccccn2)C2CCCCC2)cc1	inactive: 2.6%
CC(C)(C)NS(=O)(=O)c1ccc(NC(=O)C2CCCO2)cc1 (stereo not given)	inactive: -5.25%
CCc1nc2ccc(C(=O)NCCCN3CCCC3=O)cn2c1N(C)C(=O)COc1ccccc1	inactive: 0.0484%
CCCCC(=O)NCc1ccc(F)cc1	inactive: 12.5%
CCc1nc2ccc(C(=O)Nc3cc(-c4ccccc4)ccc3OC)cn2c1N(C)Cc1ccc(Cl)cc1	inactive: -45.2%
CCC(C)c1ccc(NC(=S)NC2CCN(Cc3ccccc3)CC2)cc1 (stereo not given)	inactive: -8.7%
C=CCOc1cccc(/C=N/NC(=O)C(OC)c2ccccc2)c1 (stereo not given)	inactive: 21.6%
O=C(N/N=C1\C2CN3CCN(C2)CC1(c1ccccc1)C3)Nc1ccccc1	inactive: 4.05%

Compound	growth rescue (activation)
CCN(CC)C(=O)c1cccc(-c2csc(C(C)(O)c3cccc(F)c3)n2)c1 (stereo not given)	inactive: 12.9%
c1ccc2c(c1)[nH]c1c(N3CCC4(CC3)OCCO4)ncnc12	inactive: 8.59%
CCOC(=O)/C(Sc1nc(-c2ccccc2)cc(-c2ccccc2)c1C#N)=C(\C)O	inactive: -4.33%
Cc1cc(C[n+]2cc(Cl)ccc2N)c2ncccc2c1	inactive: 1.03%
CCCn1cnc2cc(NC(=O)c3cc(OC)c(OC)c(OC)c3)ccc21	inactive: -4.49%
Cc1cc(S(=O)(=O)N2CCOCC2)ccc1OCC(=O)Nc1cccc(C(F)(F)F)c1	inactive: 2.82%
CC(C)C(NS(=O)(=O)c1c(Cl)cccc1Cl)C(=O)OCC(=O)c1c[nH]c2ccccc12 (stereo not given)	inactive: -9%
COc1cccc(-c2cccc(NC(=O)C3CCN(C4CCC4)CC3)c2)c1	inactive: 12.4%
CCCCNC(=S)N/N=C/c1ccc(OCC(=O)Nc2c(C)cc(C)cc2C)c(OC)c1	inactive: -3.91%
CCOc1ccccc1NC(=O)C(C)SCc1ccccc1 (stereo not given)	inactive: 20.7%
COC(=O)c1cc(-c2cccc(OC)c2)on1	inactive: 33.1%
COc1ccc(CNC(=O)CN(Cc2ccco2)C(=O)CNS(=O)(=O)c2ccc(C)cc2)cc1	inactive: -3.08%
NS(=O)(=O)c1ccc(NC(=O)CN2C(=O)c3ccccc3C2=O)cc1	inactive: 3.63%
COCCNC(=O)C1(C)CCCN(CC(=O)c2ccc(OC)cc2)C1 (stereo not given)	inactive: 12.2%
O=S(=O)(c1ccccc1)c1nc(-c2ccco2)oc1Nc1ccccc1	inactive: 15.7%
Cc1nc(SCCCSc2n[nH]c(C)n2)n[nH]1	inactive: -11.4%
CCOc1ccc(CNc2cc(C)nc3nc(-c4cccc(C)c4)nn23)cc1OC	inactive: 12.3%
CCCN1CCN(C(=O)Cn2cnc3sc(C)c(S(=O)(=O)N4CCC(C)CC4)c3c2=O)CC1	inactive: 4.96%
CCOc1cc(C)nc(N2CCC(C(=O)NCC3CCCO3)CC2)n1 (stereo not given)	inactive: -21.8%
CCc1ccc(S(=O)(=O)Nc2c(C)nc3nc[nH]n3c2=O)cc1	inactive: 4.27%
O=C(COC(=O)c1cc(=O)c2ccccc2o1)Nc1ccccc1F	inactive: -3.88%
CCOc1ccc(N2C(=O)/C(=C\c3ccc(O)c(OC)c3)S(=O)(=O)C2c2cccc([N+](=O)[O-])c2)cc1 (stereo not given)	inactive: 0.208%
NC(=O)c1ccccc1NC(=O)Cc1cccs1	inactive: 5.72%
CCCNC(=O)C1(C)CCCN(C(=O)c2oc3ccccc3c2C)C1 (stereo not given)	inactive: -9.34%
